Experimental findings from the RNAGym collection of RNA variant scans (doi:10.7554/elife.90254) are described below.

The labels stand for the following.
B1: OR4K15 (parent)
chain: GUUAACGGUCAUAGGCCAUGGAAACUAGGAGCACCAUUUCGCUGCCAGUGAAGAAAUGAACAAAGAAAAUCUGGGCCAGGCAGGCAUCAAAAGAAAUAGUCUUGCGCUCAACCAGAAAGUCUGUAAUCAUUUUAAGGGUA

Read counts are not given, so values of variants with three or more changes are uncertain.

This data set covers variants of B1. Put plainly: self-cleavage, relative activity (ratio to wild type); higher = more cleavage; in vitro, sequencing; the parent is a self-cleaving ribozyme.
As for GUUAACGGUCAUAGGCCAUGGAAACUAGGAGCACCAUUUCGCUGCCAGUGAAGAAAUGAACAAAGAAAAUCUGGGCCAGGCAGGCAUCAAAAGGAAUAGUCUCGCGCUCAACCAGUAAGUCUGUAAUCAUUUUAAGGGUA [A94G U103C A116U], the self-cleavage amounted to 0.09.
Then GUUAACGGUCAUAGGCCAUGGAAACUAGGAGCACCAUUUCGCUGCCAGUGAAGAAAUGAACAAAGAAAAUCUGGGCCAGGCAGGCAUCAAAAGGAAUAGUCUUGCGCUCAACCAGAAAGUCUGUAACCAUCUUAAGGGUA [A94G U127C U131C], with 1.04.
Then GUUAACGGUCAUAGGCCAUGGAAACUAGGAGCACCAUUUCGCUGCCAGUGAAGAAAUGAACAAAGAAAAUCUGGGCCAGGCAGGCAUCAAAAGGAAUAGUCUCGCGCUCAACCAGAAAGACUGUAACCAUUUUAAGGGUA [A94G U103C U120A U127C], with 0.15.
Regarding GUUAACGGUCAUAGGCCAUGGAAACUAGGAGCACCAUUUCGCUGCCAGUGAAGAAAUGAACAAAGAAAAUCUGGGCCAGGCAGGCAUCAAAGGAAAUAGUCUUGCGCCCAACCAGAGAGUCUGUAAUCAUUUUAAGGGUA [A92G U108C A117G], the self-cleavage was determined as 0.01.
In the case of GUUAACGGUCAUAGGCCAUGGAAACUAGGAGCACCAUUUCGCUGCCAGUGAAGAAAUGAACAAAGAAAAUCUGGGCCAGGCAGGCAUCAAAAGGGAUAGUCUUGCGCUCAACCAGAAAGUCUGUAAUCAUUUUAAGGGCA [A94G A95G U139C], the self-cleavage was 0.92.
As for GUUAACGGUCAUAGGCCAUGGAAACUAGGAGCACCAUUUCGCUGCCAGUGAAGAAAUGAACAAAGAAAAUCUGGGCCAGGCAGGCAUCAAAAGUAAAAGUCUUGCGCUCAACCGGAAAGUCUGUAAUCAUUUUAAGGGUA [A94U U97A A114G], the self-cleavage amounted to 0.79.
In the case of GUUAACGGUCAUAGGCCAUGGAAACUAGGAGCACCAUUUCGCUGCCAGUGAAGAAAUGAACAAAGAAAAUCUGGGCCAGGCAGGCAUCAAAAGGAAUAGUCUUGAGCUCAACCAGAAAGUCAGUAAUCAUUUUAAGGGUA [A94G C105A U122A], the self-cleavage is 0.01.
For GUUAACGGUCAUAGGCCAUGGAAACUAGGAGCACCAUUUCGCUGCCAGUGAAGAAAUGAACAAAGAAAAUCUGGGCCAGGCAGGCAUCAAAAGCAAUAGUCUUGCGCUCGACCAGUAAGUCUGUAAUCAUUUUAAGGGUA [A94C A110G A116U], the self-cleavage worked out at 0.02.
As for GUUAACGGUCAUAGGCCAUGGAAACUAGGAGCACCAUUUCGCUGCCAGUGAAGAAAUGAACAAAGAAAAUCUGGGCCAGGCAGGCAUCAAAAGAGAUAGUCUUGCGCUCAACGAGAAUGUCUGUAAUCAUUUUAAGGGUA [A95G C113G A118U], the figure is 0.
Then GUUAACGGUCAUAGGCCAUGGAAACUAGGAGCACCAUUUCGCUGCCAGUGAAGAAAUGAACAAAGAAAAUCUGGGCCAGGCAGGCAUCAAAAGGAAUAGUCUUGCGCUCAACCGGAGAGUCUGUAAUCAUCUUAAGGGUA [A94G A114G A117G U131C], with 0.15.
On to GUUAACGGUCAUAGGCCAUGGAAACUAGGAGCACCAUUUCGCUGCCAGUGAAGAAAUGAACAAAGAAAAUCUGGGCCAGGCAGGCAUCAAAAGAGAUAGUCUUGCGCUCAUCAAGAAAGUCUGUAAUCAUUUUAAGGGUA [A95G A111U C113A], for which the self-cleavage is 0.01.
Take GUUAACGGUCAUAGGCCAUGGAAACUAGGAGCACCAUUUCGCUGCCAGUGAAGAAAUGAACAAAGAAAAUCUGGGCCAGGCAGGCAUCAAAAGGAACAGUCUUGCGCACAACCGGAAAGUCUGUAAUCAUUUUAAGGGUA [A94G U97C U108A A114G]: the self-cleavage amounted to 0.
As for GUUAACGGUCAUAGGCCAUGGAAACUAGGAGCACCAUUUCGCUGCCAGUGAAGAAAUGAACAAAGAAAAUCUGGGCCAGGCAGGCAUCAAAAGUAAUAGUCUUGCGCUCAGCCAGAAAGUCGGUAAUCAUUUUAAGGGCA [A94U A111G U122G U139C], the figure is 0; as for GUUAACGGUCAUAGGCCAUGGAAACUAGGAGCACCAUUUCGCUGCCAGUGAAGAAAUGAACAAAGAAAAUCUGGGCCAGGCAGGCAUCAAAAGGAAUAGUCUCGCGCUCAACCAGAAAGUCUGUAAUCAUUUUAGGGGUA [A94G U103C A135G], 0.43; as for GUUAACGGUCAUAGGCCAUGGAAACUAGGAGCACCAUUUCGCUGCCAGUGAAGAAAUGAACAAAGAAAAUCUGGGCCAGGCAGGCAUCAAAAGGAGUAGUCUUGCGCUCAACCUGGGAGUCUGUAAUCAUCUUAAGGGUA [A94G A96G A114U A116G A117G U131C], 0.
As for GUUAACGGUCAUAGGCCAUGGAAACUAGGAGCACCAUUUCGCUGCCAGUGAAGAAAUGAACAAAGAAAAUCUGGGCCAGGCAGGCAUCAAAAGUAAUAGUCCUGCGCUCAACCAGAAAGUCUGUAACCAUUUUAAGGGUG [A94U U102C U127C A140G], the figure is 1.82.
Then GUUAACGGUCAUAGGCCAUGGAAACUAGGAGCACCAUUUCGCUGCCAGUGAAGAAAUGAACAAAGAAAAUCUGGGCCAGGCAGGCAUCAAAGGAAAUAGUCUUGCGCUCAACCAGAAAGUCCGUAUUCAUUUUAAGGGUA [A92G U122C A126U], with 1.15; and GUUAACGGUCAUAGGCCAUGGAAACUAGGAGCACCAUUUCGCUGCCAGUGAAGAAAUGAACAAAGAAAAUCUGGGCCAGGCAGGCAUCAAAUGAAAUUGUCUUGCGCUCAACCCGAAAGUCUGUAAUCAUUUUAAGGGUA [A92U A98U A114C], with 0.07.
For GUUAACGGUCAUAGGCCAUGGAAACUAGGAGCACCAUUUCGCUGCCAGUGAAGAAAUGAACAAAGAAAAUCUGGGCCAGGCAGGCAUCAAAAGGAAUAGUCUUGCGCUCAACCAGAAAGUCGGUAAUCAUUUUAAGGGUG [A94G U122G A140G], the self-cleavage was determined as 2.94.
GUUAACGGUCAUAGGCCAUGGAAACUAGGAGCACCAUUUCGCUGCCAGUGAAGAAAUGAACAAAGAAAAUCUGGGCCAGGCAGGCAUCAAAGGAAAUAGUCUCGCGCUUAACCAGAAAGUCUGUAAUCAUUUUAAGGGUA [A92G U103C C109U]: the self-cleavage was found to be 0.09.
